Reference: the supplement of paper PMC10338343
± gives the standard deviation. This is a selection; strong and weak results do not stand in their true shares.

These sequences were tested on MIWI (PIWIL1) piRISC loaded with piRNA #1 (30 nt) (assay: pre-steady-state target cleavage rate (min^-1); MIWI and MILI are mouse PIWI proteins and EfPiwi is from a freshwater sponge; tags in brackets are library labels; higher = faster piRNA-guided slicing of the target). Conditions: guide: piRNA #1 5'p-UGAGGUAGUAGGUUGUAUAGUAUCCAGAGG; auxiliary factor: 500 nM mouse GTSF1.
In short: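 Cleave-'n-Seq reactions paired 0.1 nM transcribed, DNA-blocked target RNA library with 1 nM active affinity-purified piRISC holding one synthetic guide, plus or minus 500 nM GTSF1 partner protein, in HEPES–potassium acetate buffer at 33 °C for 0–8 or 0–960 min. After sequencing of uncleaved targets and normalisation to depth and weakly complementary targets, the pre-steady-state cleavage rate was taken from a burst-and-steady-state fit. Three trials were pooled, and k3 was capped at 0.0001 min^-1.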

Sequence	pre-steady-state target cleavage rate
GGUCUGGAUACUAUACAACCUACCACCUCA	0.554 ± 0.06
GGUCUGGAUACUAUACAACCUACUGACCUCA	0.364 ± 0.041
GGAGACCUAACUAUACAACCUACUUGGAGA [g7:g21:cont:t1A]	0.0494 ± 0.021
GGAGACCAUAGUAUACAACCUACUAGCUCA	0.0867 ± 0.015
GGAGAGGAUACAUUACAACCUACUACCUCA	1.1 ± 0.07
GCUCUGGAUAACUAUACAACCUACUACCUCA	1.17 ± 0.075
GGAGACCUAUCUAUACAACCUAGUACCUGA	0.00392 ± 0.0028
GCUCUCGGAUACUAUACAACCUACUACCUCA	1.76 ± 0.088
GGAGACGAUACUAUACAACCUACUACCUA	0.851 ± 0.084
GGACUGGAUAUAUACAACCUACUACCUCA	1.43 ± 0.12
GGUUCUGGAUACUAUACAACCUACUACCUCA	1.9 ± 0.088
CCACUGGAUACUAUACAACCUACUACCACA	1.88 ± 0.13
GGAGACCUAUGUAUACAUCCUACUACGUCA	0.00953 ± 0.002
GGAGAGGAUACUAUACAAGCUACUACGUCA	0.723 ± 0.043
GGAGACGAUACUAUACUACCUACUUCCUCA	0.379 ± 0.037
GGAGACCUUACUAUACAUCCAACUACCUCA	0.0249 ± 0.0059
GGAGACCUAUGAUAACUAACCUACUACCUCA	< 0.0001
CCUCUGGAUACUAUACAACCUACUACCCCA	1.15 ± 0.081
GGAGUGGAUACUAUACAACCUUCUACCUCA	0.656 ± 0.029
GGAGACCUAAGUAUACAACCUAGUACCUCA	0.0434 ± 0.0083

Sequence	pre-steady-state target cleavage rate
GGACUGGAUACAAUACAACCUACUACCUCA	1.49 ± 0.11
GCUCUGGAAACUAUACAACCUACUACGUCA	0.782 ± 0.077
GGAGACCUAUCAUAUACAACCUACUACCUCA	0.109 ± 0.02
GCUCUGGAAACUAUACUACCUACUACCUCA	1.68 ± 0.15
GGAGACCUAACUAUAGAACCUACUACGUCA	0.252 ± 0.049
CCUCUGGAUACUAUACAACCUACUACCUACA	1.79 ± 0.096
GGAGACCAUACUAUACAACCUACUAUCUCA	1.65 ± 0.15
GGAGACCAUGCUAUACAACCUACUACCUCA	1.64 ± 0.14
CCUCUGGUUACUAUACAACCUACUACGUCA	1.18 ± 0.092
GGAGAGGAAUACUAUACAACCUACUACCUCA	1.32 ± 0.066
GGAGACCAUACAAUACAACCUAGUACCUCA	0.267 ± 0.035
GGUGUGGAUACUAUACAACCUACUAGCUCA	0.162 ± 0.042
CCUCUGGAAAGUAUACAACCUACUACCUCA	0.461 ± 0.027
GGAGACCUAUGAUAUGUACCUCACUACCUCA	0.00343 ± 0.0015
GGAGUGGAAUACUAUACAACCUACUACCUCA	1.53 ± 0.096
GGAGACGAUACUAUUCAACCAACUACCUCA	0.102 ± 0.0071
GGAGUGGAUACUAUACAUCCUACUACCUCA	1.18 ± 0.056
GGAGAGGAUACUAUACAACCUACUCCUCA	0.00267 ± 0.0025
GGAGACCUAUGUAUACAACCUACUACCUCC [g2:g19:cont:t1C]	0.0424 ± 0.0064
GGUCUGGUUACUAUACAACCUACUUCCUCA	0.0468 ± 0.014
